From ChEMBL document CHEMBL4888484, “Replenishing the malaria drug discovery pipeline: Screening and hit evaluation of the MMV Hit Generation Library 1 (HGL1) against asexual blood stage Plasmodium falciparum ,using a nano luciferase reporter read-out” (2022)
Where “and” joins values, the source holds several entries; their conditions need not be identical. Identical values can stand only once. Out of some 4,800 compounds screened, about 420 (8.8%) showed an effect of 50% or more. The list shows a part of the results.

Test system: Plasmodium falciparum
Assay: Confirmatory screen in NF54 nanoGlo assay, in single point, at 2uM, 72h
Assay type: functional, Erythrocyte
Conditions: timepoint 72 hour

| SMILES | % Inhibition [%] | % Inhibition (2 µM) |
| --- | --- | --- |
| Cc1ccc(CC[C@H]2Nc3ccccc3C(c3ccccc3)(c3ccccc3)O2)o1 | 74 |  |
| C=CCCS(=O)(=O)NCc1ccncc1 | -5 |  |
| COc1ccc(-c2oc(C)c(C)[n+]2[O-])cc1OC | -2 |  |
| OC[C@H](Nc1ncncc1Br)c1ccccc1F | 0 |  |
| CC(C)c1nnc(CN2CC[C@H](OC(F)F)C2)o1 | -2 |  |
| CCc1cc(=O)[nH]c(-n2nc(C3CC3)cc2NC(=O)C2CCCCC2)n1 | 88 |  |
| O=C1NCCC[C@@H]1NC(=O)[C@@H]1CN(C(=O)C2CCCCC2)CCN1C(=O)Nc1ccccc1 | 2 |  |
| Cc1cc(-c2ccc(S(=O)(=O)N3CCOCC3)s2)n[nH]1 | 4 |  |
| Cc1c(NS(=O)(=O)c2cccc3nsnc23)c(-n2cnnc2)nn1C | -8 |  |
| CC(Oc1ccc2c(c1)C(c1ccccc1)N(Cc1ccccc1F)CC2)C(=O)NC1CC1 (configuration not stated) | 56 |  |
| O=C(Nc1ccccc1Cl)OCc1cncs1 | 0 |  |
| O=S(=O)(NCc1cccnc1)Oc1ccccc1O | -5 |  |
| O=C(COc1ccc(Cl)cc1)N[C@H](CO)CC1CCCC1 | 1 |  |
| CC(=O)N1CCc2sc(C(=O)N3CCN(c4ccccc4F)CC3)cc2C1 | -7 |  |
| O=C(c1ccccc1)n1c(=O)n(C(=O)c2ccccc2)c2ccccc21 | 6 |  |
| CNC(=O)CCS(=O)(=O)CCCC(=O)Nc1c(C)cc(C)cc1C | -14 |  |
| CC1=NN(C(=O)Cc2ccc(Cl)c(O)c2)C(=O)C1 | 2 |  |
| Cc1ccc(S(=O)(=O)Nc2cccc(-c3csc(C)n3)c2)cc1 | 0 |  |
| CC(C)c1nnc(CNc2ccc(C#N)cc2)o1 | 4 |  |
| COc1ccc(CC(=N)Nc2cc3cc(OC)c(OC)cc3c(Cc3ccc(OC)c(OC)c3)n2)cc1OC | 80 |  |
| O=S(=O)(CCCc1cn[nH]c1)[C@H]1CCc2c(F)cc(F)cc21 | -5 |  |
| Cc1ccc(-n2c(=O)c3sccc3n(CC(=O)NCc3ccc(F)cc3F)c2=O)cc1C | -13 |  |
| O=C1CCC[C@H](O)N1Cc1ccc(F)cc1 | 4 |  |
| O=C1c2cc3ccccc3c(-c3ccccc3)c2C(=O)N1c1ccccc1 | -18 |  |
| CC(C(=O)Nc1ncccn1)N1CCCC1Cn1cccn1 (configuration not stated) | -4 |  |
| CCN1CN(C(=O)Cc2c[nH]c3cc(C)ccc23)CC1=O | -10 |  |

| SMILES | % Inhibition [%] | % Inhibition (2 µM) |
| --- | --- | --- |
| CC(=O)N[C@H]1[C@H](c2ccccc2)N(CCCc2ccccc2)CC[C@@]1(C)O | 1 |  |
| COc1ccc(N2CCN(C(=O)CCn3nc(-c4cccc(Cl)c4)ccc3=O)CC2)cc1 | -21 |  |
| O=C1c2cc3ccccc3n2C[C@](C(=O)NC2CCCCCCC2)(c2ccccc2)N1Cc1cccc(Cl)c1 | -9 |  |
| COc1ccc2c(c1)CN(C(=O)[C@H]1OCCO[C@H]1C)CCO2 | -1 |  |
| Nc1nccnc1C(=O)Nc1c(-c2ccccc2)ncn1C1CC1 | -4 |  |
| Cc1ccc(C2=NC3(CCCC3)NC2=O)cc1 | 3 |  |
| Cc1cccc(CNC(=O)c2ccc3c(c2)N(C)[C@@H]2CCCCCN2C3=O)c1 | -4 |  |
| C[C@@H](C1CC1)N(C1CC1)S(=O)(=O)c1cccc2c1N=S=N2 | 6 |  |
| CC(=O)N1CCn2c(nnc2[C@@H]2CCCN2S(=O)(=O)c2cc(F)ccc2F)C1 | -6 |  |
| COc1cccc(-c2ccc(=O)n(CCC(=O)N3CCN(Cc4ccc5c(c4)OCO5)CC3)n2)c1 | 1 |  |
| O=C(c1cscn1)N1CC[C@H](Oc2cccc(Cl)c2)C1 | 48 |  |
| Cc1ccc(CNC(=O)c2nc(-c3ccncc3)cs2)o1 | 7 |  |
| O=C(Cn1ccnc1)N1CCCCCC1CC(O)c1ccccc1 (configuration not stated) | 0 |  |
| Cc1nnc(C(C)NC(Cc2ccccc2)c2sccc2C)s1 (configuration not stated) | -13 |  |
| CCCc1noc([C@H]2CC(=O)N(c3ccccc3C)C2)n1 | -1 |  |
| Nc1cccnc1N1CCc2ccccc21 | -5 |  |
| CCc1ccc(NC(=O)[C@H](C)N2CCC(NS(=O)(=O)c3cccs3)CC2)cc1 | 70 |  |
| Cc1cnccc1NCCNCc1cccc(O)c1Cl | 88 |  |
| COc1c(Cl)cc(Cl)cc1C#N | -16 |  |
| CN(Cc1cccnc1)c1ccc(S(=O)(=O)C(F)F)cc1 | -5 |  |
| CC[C@@H](C(=O)NCc1ccc(OC(C)C)cc1)n1ccc2cc(S(=O)(=O)N3CCCCC3)ccc21 | 6 |  |
| C[C@@]12CO[C@@H](COc3ccccc3)O[C@@H]1CC[C@]1(C)C2CC[C@@H](O)[C@H]1CC(=O)N1CCC[C@H]1CO (some centres not stated) | -4 |  |
| CCO[C@@]1(c2ccccc2)NC(=O)c2cc3c(cc21)OCCO3 | -11 |  |
| Cc1cc(S(=O)(=O)NC[C@H]2CCCCN2)sc1C | -9 |  |
| O=c1[nH]nc2c(N3CC[C@H](NCc4ccc(F)cc4)C3)nccn12 | -7 |  |
| Cc1n[nH]cc1CNC1CC2CCC1C2 (configuration not stated) | -8 |  |

| SMILES | % Inhibition [%] | % Inhibition (2 µM) |
| --- | --- | --- |
| O=C(/N=C(/c1ccccc1)N1CCCCC1)C(F)(F)C(F)(F)C(F)(F)C(F)(F)C(F)(F)C(F)(F)F |  | 0% and -8% |
| Oc1nccc(C(F)(F)C(F)(F)F)n1 | -6 |  |
| COCCNc1nc(-c2ccccc2OC)c2c(N)n(-c3ccc(F)cc3)nc2n1 | -6 |  |
| COc1ccccc1C1c2[nH]c3ccccc3c2C[C@H]2C(=O)N(CC(O)c3ccccc3)CC(=O)N12 (some centres not stated) | 33 |  |
| Cc1nn(Cc2cccc(C(F)(F)F)c2)c(=O)n1-c1ccc(OCc2ccccc2)cc1 | -13 |  |
| CC1CC(=O)N(CC(=O)N2CCCCCC2)C(=O)C1 | -7 |  |
| Cc1ccc(N2C(=O)C[C@]3(CC3(c3ccccc3)c3ccccc3)C2=O)cc1 | 66 |  |
| Cc1nccc(O[C@H]2CCCN(C(=O)CN3CCN(c4ccccc4)C3=O)C2)n1 | -4 |  |
| Cc1ccc(NC(=O)Cn2c(C)nc3c(-c4ccccn4)nsc3c2=O)c(C)c1 | 0 |  |
| Cc1csc(S(=O)(=O)N2CC[C@H](n3cccn3)C2)c1 | -4 |  |
| CCn1nc(C(=O)N(C2CCCCC2)C2CC2)c2ccccc2c1=O | -10 |  |
| COc1ccc(Br)c(C#N)c1C | 3 |  |
| CC(CC(=O)O)CC(=O)N1CC(C)CC(C)C1 (configuration not stated) | 6 |  |
| CCC1C(C(=O)NCCN(C)CCOC)CCN1C(=O)OC(C)(C)C (configuration not stated) | -7 |  |
| COc1cccc(CNC(=O)Cn2c(=O)n(Cc3cccc(OC)c3)c(=O)c3sccc32)c1 | 2 |  |
| CCOc1cc(CNC2CCN(C(C)=O)CC2)ccc1OCc1c(F)cccc1Cl | -7 |  |
| COc1ccc(C2=Nc3ccc(S(=O)(=O)N4CCOCC4)cc3S(=O)(=O)N2)cc1 | -10 |  |
| CCS(=O)(=O)Nc1ccc(Br)cc1Cl | -5 |  |
| O=C(Cn1c(=O)n(Cc2ccc3c(c2)OCO3)c(=O)c2sccc21)Nc1ccc(Cl)cc1F | 13 |  |
| Cc1oc(-c2ccn[nH]2)cc1S(=O)(=O)Nc1cccc(Cl)c1 | 52 |  |
| Cc1cc(C(=O)N2CCC[C@H]2c2nc(C3CCOCC3)no2)n(C)n1 | -2 |  |
| Cc1nn(Cc2cccc(F)c2)c(C)c1NC(=O)c1cccc(COc2ccc(Br)cc2)c1 | 8 |  |
| CCc1nc(C(=O)[C@H](C#N)C(=O)Nc2cccc(C)c2)co1 | -10 |  |
| CCCC(C)(C)N(Cc1cccs1)Cc1nnc2n1CCOC2 | 1 |  |
| CCc1c(NC(=O)[C@@H](C)C2CC2)nnn1CCc1ccc(OC)cc1 | -1 |  |
| Cc1cnc(NC(=O)C(=O)N2CCC[C@H](n3cccn3)C2)s1 | -4 |  |

| SMILES | % Inhibition [%] | % Inhibition (2 µM) |
| --- | --- | --- |
| Cc1cc(=O)c(CO)nn1CCCc1ccccc1 | -3 |  |
| Cc1nc(C)c(CN2C(=O)C3CCCCC3C2=O)s1 (configuration not stated) | -2 |  |
| CCc1cc(C(=O)N2CCC[C@H](C)C2)c2c(C3CC3)nn(-c3ccccc3)c2n1 | -8 |  |
| CC1CCCN(c2nc(O)c3c(n2)NC(=O)CC3c2cccc(C(F)(F)F)c2)C1 (configuration not stated) | 1 |  |
| O=C(OCC1OCC(n2cc(C(F)(F)F)c(=O)[nH]c2=O)O1)c1ccccc1 (configuration not stated) | -3 |  |
| O=C(CCC(=O)N1CCCC1)NCc1ccc2c(c1)OCO2 | -16 |  |
| COCc1ncc(C)n1CCNC(=O)c1cc(-c2cc(C)ccc2C)n[nH]1 | 6 |  |
| Cc1cc(N2CCn3c(nc4ccccc43)C2)ccc1NC(=O)C1CCCCC1 | 10 |  |
| Nc1c(Br)cc2oc(-c3ccc4ccccc4c3)nc2c1Br | 3 |  |
| O=c1[nH]c2nc(N3CCCCC3)ncc2c(=O)n1Cc1ccco1 | -15 |  |
| COCc1cc2nn(CC(=O)Nc3ccc4c(c3)OCO4)c(=O)n2c(-c2ccccc2)n1 | 0 |  |
| O=S(=O)(N[C@H]1CCc2nnc(-c3ccc(F)cc3)n2C1)N1CCCCC1 | 4 |  |
| Cc1ccc(OCc2cccc(C(=O)N3CCC[C@@H]3CN3CCCCC3)c2)cn1 | 8 |  |
| COc1ccc(OC)c(CN2C(=O)c3cc4c(OC)ccc(OC)c4n3C[C@]2(C(=O)NC2CCCCCC2)c2ccccc2)c1 | 18 |  |
| Cc1cccc(Cc2c(C)nn(-c3nc(C)cc(C)n3)c2O)c1 | -18 |  |
| CCn1nc(C)c2c(C(=O)Nc3cc(C)ccc3C)cc(-c3ccc(C)cc3)nc21 | 7 |  |
| O=S(=O)(c1ccc(Cl)cc1)N1CCN(C2CCCC2)CC1 | 2 |  |
| COc1ccc(C(OC)C(C)NC(=O)Cc2c(C)[nH]c3ccnn3c2=O)cc1 (configuration not stated) | -2 |  |
| O=C(NCc1cc(F)cc(F)c1)c1ccc2ccccc2n1 | 1 |  |
| COc1ccc(N2CCN(c3nccn4nc(-c5ccc(OC)c(OC)c5)cc34)CC2)cc1 | -10 |  |
| Cn1ccc(NC(=O)c2n[nH]c3ccccc23)n1 | -12 |  |
| Cc1ccc(CNc2ncnc3c2cnn3-c2ccccn2)cc1 | 0 |  |
| O=C(NCc1cccs1)c1cn[nH]c1-c1ccccc1 | -6 |  |
| Cc1cccc2c(-c3cc(N)nc(N)n3)c[nH]c12 | 85 |  |
